According to PubChem BioAssay AID651820 (National Center for Advancing Translational Sciences (NCATS), 2012):
The campaign covered roughly 340,000 compounds. About 12,000 (3.5%) were called active. This list was built around the results that the source calls inconclusive (neither active nor inactive); the mix of calls is not that of the screen. The call rests on the fitted dose curve; in most records, active means well fitted inhibition curve with a large enough effect; inconclusive means small, poorly fitted or top-dose-only effect, or another doubt; inactive means no such curve, though single readings can be large or run the other way. No potency is given beside an inconclusive call; the fits are too rough.

Assay: qHTS Assay for Inhibitors of Hepatitis C Virus (HCV)
Conditions: Huh7.5.1 HCVcc-Cre (HCVcc is cell-culture hepatitis C virus) infection, luciferase reporter, 44 h; series mostly up to 41.8 µM
In short: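 Whole-lifecycle infectious HCVcc-Cre system; cells 1,000/well, compound then virus (~0.5 moi) added 4 h after plating, 44 h culture. Luciferase read 15 sec following 15 min substrate incubation, room temp.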
Potency means the concentration at half of the fitted maximal effect; tags describe the fitted curve by direction and shape.

| Compound | Potency |
| --- | --- |
| CCc1cc(C(=O)NC2CCCc3c2cnn3-c2cccc(C)c2C)n(C)n1 (centres undefined) | inconclusive [inhibitor, full curve, poor fit] |
| CCN(CC)S(=O)(=O)c1cc(-c2nn(C)c(=O)c3ccccc23)ccc1C | inconclusive [inhibitor, partial curve] |
| O=C(N/N=C/c1c[nH]c2ccccc12)c1ccc(Cl)cc1 | inconclusive [inhibitor, partial curve, poor fit] |
| CCN(CC)c1nc2cc(C)ccc2cc1/C=C(\C#N)C(N)=O | inconclusive [inhibitor, single point] |
| O=C1C(Cl)=C(N2CCN(Cc3ccccc3)CC2)C(=O)N1Cc1ccccc1 | inconclusive [inhibitor, single point] |
| COC(=O)c1ccc(COC(=O)c2ccc(S(=O)(=O)N3CCC(C)CC3)cc2)o1 | inconclusive [inhibitor, single point] |
| COc1ccc(C)cc1Nc1n[n+](-c2ccccc2)c(-c2c(OC)ccc3ccccc23)s1 | active: 31.6 µM |
| COCCN(C(=O)c1ccc(NC2CC2)c([N+](=O)[O-])c1)c1c(N)n(CC(C)C)c(=O)[nH]c1=O | inactive |
| O=C(NC[C@H]1CCCO1)c1cccc2c1C(=O)c1ccc(-c3ccc(F)cc3OCc3ccccc3)cc1S2(=O)=O | active: 10 µM |
| COc1ccc([N+](=O)[O-])cc1NC(=O)C(C)c1ccccc1 (centres undefined) | inconclusive [inhibitor, full curve, poor fit] |
| Cc1cc2oc3cc(NCCC4CCCN4C)ccc3c(=O)c2cc1C (centres undefined) | inconclusive [inhibitor, partial curve] |
| CCSc1nc2ccccc2n1C(=O)c1ccc(S(=O)(=O)N2CCCCC2)cc1 | inconclusive [inhibitor, single point] |
| O=[N+]([O-])c1cccc2nc3ccccc3c(NCCCn3ccnc3[N+](=O)[O-])c12 | inconclusive [inhibitor, full curve, poor fit] |
| CN1/C(=C\C(=O)c2cccc(S(=O)(=O)N3CCCCC3)c2)C(C)(C)c2ccccc21 | inactive |
| Cc1cccn2c(=O)c3cc(S(=O)(=O)c4ccc(Br)cc4)c(=N)n(C4CCCCC4)c3nc12 | inconclusive [inhibitor, full curve] |
| N=c1oc2cc(O)ccc2cc1C(=O)Nc1ccc(Cl)cc1 | inconclusive [inhibitor, single point] |
| O=C(c1ccccc1)c1ccc(OCCOCCN2CCN(Cc3ccccc3)CC2)cc1 | active: 14.1 µM |
| CCCN1/C(=C2/SC(=S)N(CC)C2=O)C=Cc2ccccc21 | inactive |
| Cc1cc(Nc2cccc(C(F)(F)F)c2)n2nc(C)nc2n1 | inactive |
| Cc1cc(C)nc(/N=C(\N)Nc2ccc(F)c([N+](=O)[O-])c2)n1 | inconclusive [inhibitor, single point] |
| CCOC(=O)Cn1c(C(=O)OCC)cc2sccc21 | inconclusive [inhibitor, full curve, poor fit] |
| CC1=C(C(=O)OCc2ccc3c(c2)OCO3)C(c2ccc(Cl)cc2)NC(=O)N1 (centres undefined) | inconclusive [inhibitor, full curve, poor fit] |
| CSc1nc(N)n2nc(C(C)(C)C)cc2n1 | inactive |

| Compound | Potency |
| --- | --- |
| CCOc1ccc(OCCOC(=O)C2CCN(S(=O)(=O)c3ccc(C)c(C)c3)CC2)cc1 | inactive |
| COC(=O)c1cc([N+](=O)[O-])ccc1N1CCN(Cc2ccccc2)CC1 | inconclusive [inhibitor, single point] |
| O=C(CNc1cccc(C(F)(F)F)c1)Nc1cccc(S(=O)(=O)N2CCCC2)c1 | active: 11.2 µM |
| COc1ccc(N/N=C(\C#N)C(=N)N2CCOCC2)cc1 | inconclusive [inhibitor, single point] |
| O=C(Nc1nnc(C2CC2)s1)C1Cc2ccccc2CN1S(=O)(=O)c1cccs1 (centres undefined) | inactive |
| Nc1ccc(N2CCOCC2)cc1C(F)(F)F | inactive |
| O=C(Nc1cccc([N+](=O)[O-])c1)NN1CCCCCC1 | inactive |
| COc1ccc(-c2sc3cc4c(cc3c2C#CCO)OCO4)cc1 | active: 11.2 µM |
| CC(=O)N(CCc1cccc(C)c1)Cc1cc2ccc(C)cc2[nH]c1=O | inactive |
| COc1ccc2c(c1)c(C(C)=O)c(C)n2CCc1ccccc1 | inconclusive [inhibitor, partial curve] |
| COc1cccc(/C=C/C(=O)c2ccc(NS(=O)(=O)c3ccc(C)cc3)cc2)c1 | inconclusive [inhibitor, single point] |
| Cc1ccc2c(c1)c1c3n2CCN(CC(N)=O)C3CCC1 (centres undefined) | inconclusive [inhibitor, single point] |
| Cc1cccc(C2CC3(CC(C)(C)NC(=S)N3)Oc3cc(O)ccc32)c1 (centres undefined) | active: 10 µM |
| Oc1ccc(Br)cc1-c1ccnn1-c1ccccc1 | inconclusive [inhibitor, single point] |
| COc1ccc(C(=O)NC2CC(C)(C)Cc3c2cnn3-c2ccccc2)cc1OC (centres undefined) | inconclusive [inhibitor, partial curve] |
| CC(C)Cc1ccc(CN2CCC(n3nccc3NC(=O)C3CCCC3)CC2)cc1 | inconclusive [inhibitor, single point] |
| COc1ccc(C2C(C(=O)Nc3cccnc3)=C(C)Nc3nc(-c4ccco4)nn32)cc1 (centres undefined) | inactive |
| CN(C(=O)CN1CCN(c2ccc([N+](=O)[O-])cn2)CC1)c1ccccc1 | inconclusive [inhibitor, full curve, poor fit] |
| CC(=O)c1cnn(-c2ccc(Cl)c(Cl)c2Cl)c1C | inactive |
| CC1CCN(S(=O)(=O)c2ccc(NC(=O)C3CCN(C(=O)c4ccco4)CC3)cc2)CC1 | inconclusive [inhibitor, single point] |
| Oc1[nH]c2ccc(Br)cc2c1N=NC(=S)Nc1ccc(F)cc1 | inconclusive [inhibitor, full curve] |
| Cc1ccc(NC(=O)CSc2nnc(CNC(=O)c3ccco3)o2)cc1Cl | inactive |
| Cc1nn(C)cc1CN(C)C(=O)c1cc2nc(-c3ccco3)cc(C(F)(F)F)n2n1 | inactive |

| Compound | Potency |
| --- | --- |
| CC(=O)Nc1ccc(Nc2ncnc3c2cnn3-c2ccccc2)cc1 | inconclusive [inhibitor, single point] |
| Cc1ccc(CN(Cc2cc3cccc(C)c3[nH]c2=O)C(=S)NCCCN(C)C)cc1 | active: 35.5 µM |
| COc1ccc(N2CCN(Cc3cc(=O)c(OCC(=O)NC4CCCC4)co3)CC2)cc1 | inactive |
| CCCOc1ccc(-c2nc(C#N)c(NCC3CCCO3)o2)cc1 (centres undefined) | inconclusive [inhibitor, partial curve, poor fit] |
| CC(=O)C1=C(C)NC(SCC(=O)c2ccc(Cl)cc2)=C(C#N)C1c1ccco1 (centres undefined) | inconclusive [inhibitor, partial curve] |
| O=[N+]([O-])c1cccc2ccc(/C=C/c3ccc(Cl)cc3)nc12 | inconclusive [inhibitor, partial curve, poor fit] |
| COc1ccc(-c2csc(NC(=O)CCS(=O)(=O)c3ccccc3)n2)c(OC)c1 | inconclusive [inhibitor, single point] |
| O=C(CN1CCCCCC1)Nc1ccc(Oc2ccccc2)cc1 | inconclusive [inhibitor, full curve] |
| CCOc1ccccc1NC(=O)CN(c1ccc(C)cc1)S(=O)(=O)c1c(C)n[nH]c1C | inconclusive [inhibitor, single point] |
| Fc1ccc(-c2nc3ccccc3[nH]2)cc1 | inconclusive [inhibitor, partial curve] |
| CC(=O)Nc1cccc(NC(=O)c2cc(-c3ccccn3)nc3ccc(Cl)cc23)c1 | inconclusive [inhibitor, partial curve] |
| Cc1ccc(S(=O)(=O)N2CN(Cc3ccco3)c3nc4ccccc4nc32)cc1 | inconclusive [inhibitor, single point] |
| COc1ccc(-c2noc(CCCOc3ccccc3)n2)cc1OC | inactive |
| COc1ccc(CCNC(=O)Cn2nnc(C(=O)Nc3cccc(C)c3C)c2N)cc1OC | inconclusive [inhibitor, partial curve] |
| O=C(NC1CCCCC1)c1ccc(-c2ccccc2)cc1 | inactive |
| O=C(NCCCNc1ccnc2cc(Cl)ccc12)c1ccccc1F | active: 10 µM |
| CCCOC(=O)c1ccc(NC(=O)Oc2ccccc2)cc1 | inactive |
| Cc1cc(C)c2nc3s/c(=C/c4ccc5c(c4)n(C)c(=O)n5C)c(=O)n3c2c1 | inconclusive [inhibitor, full curve] |
| Cc1c(NC(=O)COC(=O)C(c2ccc(Cl)cc2)C(C)C)c(=O)n(-c2ccccc2)n1C (centres undefined) | inconclusive [inhibitor, single point] |
| CCCCCC(=O)N1CC2(CC(c3cccc(NC(=O)COc4ccc(Cl)cc4)c3)=NO2)C[C@@H]1C(N)=O (some centres undefined) | inconclusive [inhibitor, partial curve] |
| COc1ccc(-c2csc(NC(=O)CSC(C)C(=O)Nc3cc(C)on3)n2)cc1OC (centres undefined) | inconclusive [inhibitor, partial curve] |
| Cc1nc2ccc(Oc3ccccc3)cc2s1 | inactive |
| O=S(=O)(c1cccs1)N1CN(C2CCCCC2)c2nc3ccccc3nc21 | inconclusive [inhibitor, single point] |
